# Assay results reported in PMC4336329 (PLoS ONE, 2015).
# The campaign covered roughly 310,000 compounds. About 2,200 (0.71%) showed an effect of 50% or more. Effects have a minus sign here. The list shows a part of the results.
# Molecular target: human ether-à-go-go-related gene (hERG) potassium channel (human, UniProt Q12809)
# Assay: primary screen, population patch clamp on CHO cells stably expressing hERG
# Sequence of human ether-à-go-go-related gene (hERG) potassium channel (Q12809 whole entry, looked up): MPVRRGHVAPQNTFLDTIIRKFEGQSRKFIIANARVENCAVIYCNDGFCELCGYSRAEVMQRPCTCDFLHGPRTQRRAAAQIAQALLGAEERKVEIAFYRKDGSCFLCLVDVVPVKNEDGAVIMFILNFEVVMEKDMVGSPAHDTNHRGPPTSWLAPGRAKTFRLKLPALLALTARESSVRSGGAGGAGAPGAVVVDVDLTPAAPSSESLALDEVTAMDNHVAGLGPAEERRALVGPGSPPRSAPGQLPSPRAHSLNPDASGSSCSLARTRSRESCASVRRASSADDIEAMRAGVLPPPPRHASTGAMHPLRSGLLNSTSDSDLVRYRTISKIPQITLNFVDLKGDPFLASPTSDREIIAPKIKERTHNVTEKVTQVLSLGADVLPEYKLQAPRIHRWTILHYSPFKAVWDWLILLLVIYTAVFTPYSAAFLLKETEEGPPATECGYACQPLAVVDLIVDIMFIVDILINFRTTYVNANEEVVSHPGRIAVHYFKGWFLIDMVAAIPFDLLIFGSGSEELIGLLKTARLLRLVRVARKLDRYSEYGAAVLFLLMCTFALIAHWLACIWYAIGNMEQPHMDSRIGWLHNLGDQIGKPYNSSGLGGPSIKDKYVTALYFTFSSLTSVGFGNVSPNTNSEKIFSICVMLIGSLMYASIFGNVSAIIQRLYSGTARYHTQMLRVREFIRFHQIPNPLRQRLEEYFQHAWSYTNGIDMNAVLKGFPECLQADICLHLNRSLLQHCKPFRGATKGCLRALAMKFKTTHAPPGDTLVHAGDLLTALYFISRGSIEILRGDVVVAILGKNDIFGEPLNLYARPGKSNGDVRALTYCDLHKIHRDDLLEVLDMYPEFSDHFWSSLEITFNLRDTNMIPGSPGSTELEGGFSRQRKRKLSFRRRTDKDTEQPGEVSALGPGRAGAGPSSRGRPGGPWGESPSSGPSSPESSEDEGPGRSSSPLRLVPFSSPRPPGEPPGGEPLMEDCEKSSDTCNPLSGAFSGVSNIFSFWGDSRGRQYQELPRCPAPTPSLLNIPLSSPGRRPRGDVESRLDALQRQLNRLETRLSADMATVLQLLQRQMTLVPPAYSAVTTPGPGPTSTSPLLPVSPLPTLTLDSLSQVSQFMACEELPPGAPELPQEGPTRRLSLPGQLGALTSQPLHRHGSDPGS
row,Structure (SMILES),"hERG current change (%, negative = inhibition) at 1uM [%]"
1,CC(NC(=O)C(=O)N/N=C\c1ccc([N+](=O)[O-])cc1)c1ccccc1 (centres unmarked),19.6
2,CCn1c(C(O)c2cc(OC)c(OC)c(OC)c2)nc2ccccc21 (centres unmarked),8.37
3,C/C(CC(=O)Nc1ccc(N(C)C)cc1)=N\NC(=O)Cc1csc(N)n1,4.59
4,C=CCn1c(SCC)nc2sc3c(c2c1=O)CCc1ccccc1-3,3.16
5,O=C(CCc1ccccc1)NC1(Cc2ccccc2)CCN(CCc2cccs2)C1=O (centres unmarked),11.4
6,Cn1cccc1CC(=O)N/N=C\c1c2ccccc2cc2ccccc12,-3.5
7,O=C(Sc1nnc(-c2ccccc2)o1)N1c2ccccc2Sc2ccccc21,7.97
8,O=C(N1CCC(n2nc(-c3ccccc3)oc2=O)CC1)C1(c2ccc(Cl)cc2)CC1,7.63
9,Cc1cccc(C)c1NC(=S)N(CCCN1CCN(C)CC1)Cc1cccs1,-9.81
10,O=C(CSc1nc2[nH]ncc2c(=O)n1-c1ccccc1)N1CCCc2ccccc21,3.67
11,COCCNC(=O)/C(C#N)=C/c1cccc(/C=C(\C#N)C(=O)NCCOC)c1,14.7
12,COc1ccc(S(=O)(=O)N2CCN(C(=O)CC3CC4CCC3C4)CC2)cc1 (centres unmarked),8.51
13,COCCCNC(=O)c1ccc2c(=O)n(Cc3ccccc3OC)c(=S)[nH]c2c1,13.1
14,CN(C)CCOc1nc(-c2ccccc2)nc2c1oc1ccccc12,-3.96
15,Cc1sc(NC(=O)c2cccc([N+](=O)[O-])c2)c(C(N)=O)c1-c1ccc(C(C)(C)C)cc1,2.8
16,COc1ccccc1CNC(=O)c1ccc2ccccc2n1,17.8
17,CCOc1ccc(N2CC(C(=O)NCCC3=CCCCC3)CC2=O)cc1 (centres unmarked),2.73
18,CCN(CC)S(=O)(=O)c1ccc(OC)c(NC(=O)c2cc([N+](=O)[O-])ccc2Cl)c1,13.7
19,Cc1cccc(N2CN(Cc3cccnc3)CNC2=S)c1,10.2
20,CCN(CC)CCNC(=O)Cn1nc(-c2ccccc2)c2ccccc2c1=O,-5.24
21,O=C(CCSCCc1ccccn1)Nc1c(F)cc(F)cc1Br,7.94
22,Fc1ccc(-n2c(-c3cccs3)nc3nc4ccccc4nc32)cc1,12.6
23,COc1ccc(-c2cc(C)no2)cc1S(=O)(=O)Nc1ccc(NC(C)=O)cc1,7.97

row,Structure (SMILES),"hERG current change (%, negative = inhibition) at 1uM [%]"
1,CCOc1ccc(NC(=O)CN2C(=O)COc3ccc(Cl)cc32)cc1,2.32
2,O=C1CC(c2ccco2)Cc2c1cnn2-c1nc2ccccc2s1 (centres unmarked),9.9
3,COc1ccc(NC(=O)CCn2cc(C)c3ccccc32)cc1,6.61
4,O=C1CCCC2=C1C1(CCCC1)N=C(Nc1nc3ccccc3s1)N2,-5.45
5,CC1(C)CC(=O)c2cnc(N3CCc4ccccc4C3)nc2C1,5.49
6,Brc1ccc(OCCn2ccnc2)cc1,10.8
7,C(=C\c1nnc(-c2cccs2)o1)/c1ccccc1,8.47
8,COCCNC(=O)C(=O)NNC(=O)c1ccccc1OC,12.5
9,Cc1ccc(NC(=O)c2ccccc2OCc2ccc([N+](=O)[O-])cc2)nc1,10.2
10,COc1ccc(S(=O)(=O)N2CCN(CC3CC=CCC3)CC2)cc1 (centres unmarked),12
11,Cc1nn(C(C)C(=O)O)c(=O)c2c1sc1ccccc12 (centres unmarked),2.43
12,OC1(c2ccc(Cl)cc2)CCN(Cc2nc(-c3cnccn3)no2)CC1,1.58
13,COc1cccc(N2CCN(CC(=O)Nc3ccccc3C(=O)NCCc3ccccc3)CC2)c1,44.7
14,Cn1cc(/C=C2\SC(=S)N(NC(=O)c3ccccc3)C2=O)c2ccccc21,14.2
15,Cc1ccc2nc(N3CCN(Cc4nnnn4C4CCCC4)CC3)c(C#N)cc2c1,-0.792
16,CCCc1cc(=O)oc2cc(OCC(=O)NCCCN3CCOCC3)c(Cl)cc12,-10.3
17,CCOc1ccccc1N(CC(=O)O)S(=O)(=O)c1ccc(C)cc1,15
18,COC(=O)C(C(=O)OC)C(C[N+](=O)[O-])c1ccc(O)c(OC)c1 (centres unmarked),2.6
19,CCOC(=O)NC(=O)COC(=O)CNC(=O)c1cccc(OC)c1,10.1
20,COc1ccc(C(=O)N/N=C/C2CC=CCC2)cc1OC (centres unmarked),7.93
21,Clc1ccc(OCc2nnc3n2CCCCC3)c(Cl)c1,0.0126
22,Cc1ccc(SCc2ccc(C(=O)Nc3cccc([N+](=O)[O-])c3)cc2)cc1,9.54
23,CN1C(=O)Cc2cc(S(=O)(=O)N3CCN(c4cccc(Cl)c4)CC3)ccc21,16.1

row,Structure (SMILES),"hERG current change (%, negative = inhibition) at 1uM [%]"
1,COC(=O)c1sccc1NC(=S)N1CCCC(C)C1 (centres unmarked),11.5
2,CCOC(=O)c1cc(C(=O)OCC)c2ccccn2c1=O,8.96
3,CC1CN(C(=O)COc2ccc3ccccc3c2Br)CC(C)O1 (centres unmarked),9.61
4,CCc1ccc(N2C(=O)CC(NNc3nc4ccccc4s3)C2=O)cc1 (centres unmarked),8.71
5,COc1ccccc1CNC(=O)CC1C(=O)NCCN1C1Cc2ccccc2C1 (centres unmarked),14
6,Cc1csc(NC(=O)CCNS(=O)(=O)c2ccc3c(c2)c(=O)n(C)c(=O)n3C)n1,18.7
7,COc1ccc(-c2sccc2C(C)C(=O)O)cc1 (centres unmarked),13.7
8,O=C(CNC(=O)c1cccs1)NCCN1CCN(c2ccccc2F)CC1,6.11
9,COc1ccc(N2CCOCC2)c(NC(=O)c2cccs2)c1,-3.22
10,Cc1ccc(NNC(=O)Nc2ccc(Cl)cc2)nn1,13.1
11,O=C(Nc1ccc(Oc2cccnc2)cc1)c1ccccc1F,-1.67
12,COc1ccccc1NS(=O)(=O)c1cc(C(=O)NCC(c2cccs2)N2CCOCC2)ccc1C (centres unmarked),1.69
13,Cc1ccc(OCCC(=O)OCC(=O)NC(=O)c2ccccc2)cc1,14.1
14,COc1ccccc1NC(=O)Nc1c(C)n(C)n(-c2ccccc2)c1=O,-7.18
15,Oc1c(C=C2N=c3ccccc3=N2)sc(=S)n1-c1ccccc1,17.7
16,O=C(NCc1ccco1)C(=O)NCC1OCCN1S(=O)(=O)c1ccccc1 (centres unmarked),5.95
17,Cc1ccc(S(=O)(=O)N2CCC(C(=O)N[C@H](C(=O)NCc3ccco3)C(C)C)CC2)cc1,-0.918
18,COc1ccc(C2CC(c3ccc(OC)cc3)n3nc(N)nc3N2)cc1 (centres unmarked),4.23
19,Cc1ccc(NC(=O)c2cc(C)on2)cc1,6.42
20,O=C(COC(=O)c1cccnc1Cl)Nc1ncc(Cl)cc1Cl,4.88
21,Cc1onc(-c2ccccc2Cl)c1C(=O)NCc1ccco1,10.2
22,O=C(NC1CCCCCC1)c1cc2ccccc2oc1=O,14.4
23,O=C(CCCCl)Nc1c2c(nn1-c1ccccc1)CSC2,15.3

row,Structure (SMILES),"hERG current change (%, negative = inhibition) at 1uM [%]"
1,Cc1ccc(-n2c(SCc3nc4ccccc4c(=O)[nH]3)nnc2-c2ccccc2O)cc1,-3.43
2,OCCC1CN(CCCc2ccccc2)CCN1Cc1ccc(F)cc1 (centres unmarked),-12.1
3,COc1ccc(CCNCc2ccccc2F)cc1.O=C(O)C(=O)O,-7.49
4,CC(=O)c1c(C)[nH]c(C(=O)OCC(=O)NCCCc2ccccc2)c1C,-0.308
5,CCCCOCCCNC(=O)c1ccc(NC(C)=O)cc1,1.07
6,Cc1ccccc1NC(=O)/C(C#N)=C\c1cc(C)n(-c2ccc(C(=O)O)cc2)c1C,11.7
7,COCCC(=O)N1CCc2ccc(NC(=O)c3ccc(C(F)(F)F)cc3)cc2C1,3.67
8,Cc1cccc(C)c1NC(=O)CSc1nnc(Cn2nnc(-c3ccccc3)n2)n1-c1ccccc1,-15
9,CCC1Nc2ccccc2-c2nnc(SC)nc2O1 (centres unmarked),5.26
10,CC(C)CN(C(=O)COC(=O)c1ccc2ccccc2c1)c1c(N)n(Cc2ccccc2)c(=O)[nH]c1=O,-2.87
11,COC(=O)c1cccc(NC(=O)CN2C(=O)c3ccccc3C2=O)c1,6.13
12,Cc1cc(C)cc(OC(C)c2ccnc3nc(/N=C/N(C)C)nn23)c1 (centres unmarked),19.4
13,Cc1cccc(CN2C(=O)CSc3ccc(C(=O)NC4CC4)cc32)c1,6.03
14,Cn1c(-c2ccc(F)cc2)cnc1NCc1ccccc1F.O=C(O)C(=O)O,-1.7
15,N#CCN1C(=S)N=C(Nc2cccc(Cl)c2)C12CCCCC2,2.49
16,CC(=O)Nc1ccc(C(=O)COC(=O)c2c(C)noc2C)c(F)c1,3.59
17,O=C(N/N=C/c1cccnc1)c1cc2ccccc2o1,3.33
18,Cn1nnnc1Sc1ncnc2scc(-c3ccc(F)cc3)c12,-4.85
19,CCOC(=O)C1CCN(C(=O)C(C)c2ccc([N+](=O)[O-])cc2)CC1 (centres unmarked),7.01
20,Cc1cccc(CN2CCN(c3ncccn3)CC2)c1,9.11
